Source: the supplement of paper PMC9446081
Out of some 39,000 compounds screened, about 220 (0.56%) showed activity. Some of the results follow.

tested on: Escherichia coli K-12 BW25113; test: relative growth (OD600 normalised to plate interquartile mean) (fraction); higher = less growth inhibition, active = 0.2 or less; details: 50 µM; LB; incubation time: overnight (16-24 h)
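Note: static incubation at 37 °C against the wild-type strain, values averaged over two biological replicates.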

**Q.** How did the relative growth turn out when Cc1ccc(S(=O)(=O)Nc2ccc3c(c2)C(=O)N([C@H](C)CO)C[C@@H](C)[C@@H](CN(C)S(C)(=O)=O)O3)cc1 was run?
**A.** inactive: 0.999

**Q.** COc1ccc(S(=O)(=O)N(C)C[C@H]2Oc3ccc(NS(=O)(=O)c4ccc(C)cc4)cc3CC(=O)N([C@@H](C)CO)C[C@@H]2C)cc1 was tested. Which relative growth did it give?
**A.** inactive: 1.01

**Q.** CCOC(=O)/C(=N/O)c1csc(N)n1 was tested. Which relative growth did it give?
**A.** inactive: 0.997

**Q.** For C[C@H]1CN([C@@H](C)CO)C(=O)CCCn2nncc2CO[C@@H]1CN(C)C(=O)Nc1ccccc1C(F)(F)F, which relative growth is on record?
**A.** inactive: 0.975

**Q.** For N#Cc1c(-c2ccccc2)no[n+]1[O-], which relative growth is on record?
**A.** inactive: 0.992

**Q.** For C[C@@H]1CCCCO[C@H](CN(C)S(=O)(=O)c2cn(C)cn2)[C@@H](C)CN([C@@H](C)CO)C(=O)c2cc(NS(=O)(=O)c3cccs3)ccc2O1, which relative growth is on record?
**A.** inactive: 0.995

**Q.** How did the relative growth turn out when Oc1ccc(F)c2ccccc12 was run?
**A.** inactive: 0.903

**Q.** COc1cccc(S(=O)(=O)Nc2ccc3c(c2)[C@@H]2C[C@H](CC(=O)NC4CCCCC4)O[C@H](CO)[C@@H]2O3)c1 was tested. Which relative growth did it give?
**A.** inactive: 0.99

**Q.** Which relative growth does the source give for CC(=O)O[C@@H]1CC[C@]2(C)[C@H]3CC[C@]4(C)C(=CC(=O)O[C@H]4c4ccoc4)[C@]3(C)[C@H](OC(C)=O)C[C@H]2C1(C)C here?
**A.** inactive: 1.01

**Q.** For C[C@H](CO)N1C[C@H](C)[C@@H](CN(C)S(=O)(=O)c2cccs2)Oc2ccc(NC(=O)CCCN(C)C)cc2C1=O, which relative growth is on record?
**A.** inactive: 0.991

**Q.** Which relative growth does the source give for O=C(CCCCCCC(=O)Nc1ccc([C@H]2O[C@@H](CSc3ccncc3)C[C@H](c3ccccc3)O2)cc1)NO here?
**A.** inactive: 0.974

**Q.** Which relative growth does the source give for O=C(Cn1ccc([N+](=O)[O-])n1)Nc1cccnc1 here?
**A.** inactive: 1.02

**Q.** COc1ccc(NC(=O)Nc2ccc3c(c2)C(=O)N([C@@H](C)CO)C[C@@H](C)[C@H](CN(C)Cc2ccc(Oc4ccccc4)cc2)O3)cc1 was tested. Which relative growth did it give?
**A.** inactive: 0.985

**Q.** COC(=O)C1=C2CC[C@H](COC(=O)NCCCCCC(=O)NO)NC(=O)N[C@@H](Cc3ccccc3)c3cn(nn3)C[C@@H](Cc3ccccc3)NC(=O)c3oc(c(C(=O)OC)c3C(=O)OC)CC[C@H](COC(=O)NCCCCCC(=O)NO)NC(=O)N[C@@H](Cc3ccccc3)c3cn(nn3)C[C@@H](Cc3ccccc3)NC(=O)C(=C1C(=O)OC)O2 was tested. Which relative growth did it give?
**A.** inactive: 0.992

**Q.** O=C(O)Cn1nnnc1-c1ccsc1 was tested. Which relative growth did it give?
**A.** inactive: 1.02

**Q.** Which relative growth does the source give for Cc1ccc(S(=O)(=O)N(C)C[C@H]2Oc3ccc(NC(=O)CCCN(C)C)cc3CC(=O)N([C@@H](C)CO)C[C@H]2C)cc1 here?
**A.** inactive: 0.987

**Q.** With C=CC(=O)Nc1cccc(Nc2nc(Nc3ccc(NC4CN(CCF)C4)cc3OC)ncc2C(F)(F)F)c1 as the compound, how does the relative growth read?
**A.** inactive: 0.998

**Q.** Cc1noc(C)c1S(=O)(=O)Nc1cccc2c1O[C@H](CN(C)C(=O)NC(C)C)[C@H](C)CN([C@H](C)CO)C2=O was tested. Which relative growth did it give?
**A.** inactive: 1.01

**Q.** How did the relative growth turn out when Cc1noc(C)c1NC(=O)N(C)C[C@H]1OCCCC[C@@H](C)Oc2ccc(NC(=O)Cc3ccccc3)cc2C(=O)N([C@@H](C)CO)C[C@H]1C was run?
**A.** inactive: 1.01

**Q.** How did the relative growth turn out when COc1ccc([Si](C)(C)[C@@H]2[C@@H](CC(=O)N3Cc4ccccc4C[C@H]3CO)O[C@]3(C(=O)N(Cc4cccc(N5C(=O)c6cccc7cccc5c67)c4)c4ccccc43)[C@H]2C)cc1 was run?
**A.** inactive: 1.04

**Q.** With CC(=O)O[C@H]1[C@H](O)[C@@H](O[C@@H]2C[C@](C)(O[C@H]3O[C@H](C)[C@H](O)[C@H](O)[C@@H]3O[C@@H]3O[C@H](C)[C@@H](O)[C@H](O)[C@@H]3O)O[C@@H]3CC[C@H]4C(C)(C)CCC[C@]4(C)[C@@H]23)O[C@@H](CO)[C@H]1O as the compound, how does the relative growth read?
**A.** inactive: 1

**Q.** With CC(C)NC(=O)N(C)C[C@@H]1Oc2ccc(NC(=O)Cc3ccccc3)cc2CC(=O)N([C@H](C)CO)C[C@H]1C as the compound, how does the relative growth read?
**A.** inactive: 0.977

**Q.** For COc1ccc(S(=O)(=O)Nc2ccc3c(c2)C(=O)N([C@@H](C)CO)C[C@@H](C)[C@@H](CN(C)Cc2ccc(Cl)c(Cl)c2)O3)cc1, which relative growth is on record?
**A.** inactive: 0.967

**Q.** With COc1ccc(NC(=O)Nc2ccc3c(c2)CC(=O)N([C@@H](C)CO)C[C@@H](C)[C@@H](CN(C)Cc2ccc(Cl)c(Cl)c2)O3)cc1 as the compound, how does the relative growth read?
**A.** inactive: 1.01

**Q.** For C[C@H]1CN([C@@H](C)CO)C(=O)Cc2cc(NC(=O)Nc3ccc4c(c3)OCO4)ccc2O[C@@H]1CN(C)Cc1ccc(-c2ccccc2)cc1, which relative growth is on record?
**A.** inactive: 1

**Q.** How did the relative growth turn out when NCC[C@@H]1CC[C@@H](NC(=O)C2CC2)[C@H](CO)O1 was run?
**A.** inactive: 0.993

**Q.** For CCCNC(=O)N(C)C[C@@H]1Oc2cc(-c3ccccc3F)ccc2S(=O)(=O)N([C@H](C)CO)C[C@H]1C, which relative growth is on record?
**A.** inactive: 0.995

**Q.** Which relative growth does the source give for C[C@@H]1CCCCO[C@@H](CN(C)C(=O)Cc2ccccc2)[C@@H](C)CN([C@@H](C)CO)C(=O)c2cc(NS(=O)(=O)c3ccc(Cl)cc3)ccc2O1 here?
**A.** inactive: 1.03

**Q.** For O=C(C[C@H]1C[C@@H]2c3cc(NC(=O)Nc4ccc(C(F)(F)F)cc4)ccc3O[C@@H]2[C@@H](CO)O1)NCc1ccc(Cl)cc1, which relative growth is on record?
**A.** inactive: 1.03

**Q.** For CCCC/C=C/[C@H]([C@@H](O)Cc1ccccc1)N(CC#Cc1ccccc1)Cc1ccccc1Br, which relative growth is on record?
**A.** inactive: 1.01

**Q.** CCCN(C)C[C@@H]1OCCCC[C@H](C)Oc2ccc(NC(=O)Cc3ccccc3)cc2C(=O)N([C@H](C)CO)C[C@@H]1C was tested. Which relative growth did it give?
**A.** inactive: 0.997

**Q.** Which relative growth does the source give for C[C@@H]1CN([C@H](C)CO)C(=O)c2cc(NC(=O)NC3CCCCC3)ccc2O[C@@H](C)CCCCO[C@@H]1CN(C)C(=O)c1ccccc1 here?
**A.** inactive: 0.979

**Q.** With CC(C)NC(=O)N(C)C[C@H]1OCCCC[C@@H](C)Oc2ccc(NS(C)(=O)=O)cc2C(=O)N([C@@H](C)CO)C[C@H]1C as the compound, how does the relative growth read?
**A.** inactive: 1

**Q.** For C[C@H](CO)N1C[C@H](C)[C@H](CN(C)Cc2ccc3c(c2)OCO3)OCCCC[C@H](C)Oc2ccc(NC(=O)Nc3ccc(C(F)(F)F)cc3)cc2C1=O, which relative growth is on record?
**A.** inactive: 1.04

**Q.** For C[C@H](CO)N1C[C@H](C)[C@H](CN(C)Cc2ccc(Oc3ccccc3)cc2)Oc2ccc(NC(=O)Cc3ccccc3)cc2CC1=O, which relative growth is on record?
**A.** inactive: 0.862

**Q.** COCCNC(=O)C[C@@H]1CC[C@H]2[C@@H](COc3ccc(NC(=O)Nc4cccc(F)c4)cc3C(=O)N2C)O1 was tested. Which relative growth did it give?
**A.** inactive: 0.99

**Q.** With COc1ccc([C@@H]([C@H](Cc2ccccc2)OC(C)=O)N2C[C@H](CC(=O)N(C)C)[C@@H]3[C@H]([C@@H]2Cc2ccccc2)N(C)O[C@H]3c2ccccc2)cc1 as the compound, how does the relative growth read?
**A.** inactive: 1.02

**Q.** With C[C@@H]1CN([C@@H](C)CO)C(=O)c2cc(NS(=O)(=O)c3ccccc3)ccc2O[C@@H](C)CCCCO[C@@H]1CN(C)Cc1ccc2c(c1)OCO2 as the compound, how does the relative growth read?
**A.** inactive: 0.996

**Q.** How did the relative growth turn out when C[C@@H]1CN([C@H](C)CO)C(=O)c2c(c3ccccc3n2C)-c2ccccc2CO[C@@H]1CN(C)C(=O)Nc1cccc(C(F)(F)F)c1 was run?
**A.** inactive: 1.01

**Q.** Which relative growth does the source give for Cc1cc(C(=O)Nc2cccc3c2O[C@@H](CN(C)Cc2ccc(Oc4ccccc4)cc2)[C@@H](C)CN([C@@H](C)CO)C3=O)n(C)n1 here?
**A.** inactive: 1.02

**Q.** Which relative growth does the source give for NS(=O)(=O)c1cc(C(=O)O)c(NCc2ccco2)cc1Cl here?
**A.** inactive: 1.12

**Q.** C[C@@H]1CCCCO[C@H](CN(C)Cc2ccc(C(F)(F)F)cc2)[C@@H](C)CN([C@H](C)CO)C(=O)c2cc(NS(=O)(=O)c3ccc(Cl)cc3)ccc2O1 was tested. Which relative growth did it give?
**A.** inactive: 1.05

**Q.** Which relative growth does the source give for C[C@@H]1CCCCO[C@H](CN(C)Cc2ccc(C(F)(F)F)cc2)[C@H](C)CN([C@H](C)CO)C(=O)c2cc(NC(=O)c3ccncc3)ccc2O1 here?
**A.** inactive: 0.959

**Q.** With C[C@@H]1CCCCO[C@H](CN(C)Cc2ccc(C(F)(F)F)cc2)[C@H](C)CN([C@@H](C)CO)C(=O)c2cc(NC(=O)c3ccccc3)ccc2O1 as the compound, how does the relative growth read?
**A.** inactive: 0.982

**Q.** For CC(C)NC(=O)N(C)C[C@@H]1Oc2cc(C#Cc3ccc(F)cc3)ccc2S(=O)(=O)N([C@@H](C)CO)C[C@H]1C, which relative growth is on record?
**A.** inactive: 1

**Q.** With C[C@@H]1CN([C@@H](C)CO)C(=O)c2cc(NS(=O)(=O)c3cn(C)cn3)ccc2O[C@H]1CN(C)C(=O)Nc1ccc2c(c1)OCO2 as the compound, how does the relative growth read?
**A.** inactive: 1.01

**Q.** With CN(C)CC/C=C1/c2ccccc2Sc2ccc(Cl)cc21 as the compound, how does the relative growth read?
**A.** inactive: 0.82

**Q.** How did the relative growth turn out when Cc1ccc(S(=O)(=O)N[C@H]2CC[C@@H](CC(=O)NCc3ccc(Cl)c(Cl)c3)O[C@H]2CO)cc1 was run?
**A.** inactive: 0.856

**Q.** For Cc1ccc(S(=O)(=O)N[C@H]2C=C[C@H](CC(=O)NCCN3CCCCC3)O[C@H]2CO)cc1, which relative growth is on record?
**A.** inactive: 0.982

**Q.** COc1ccc(S(=O)(=O)Nc2ccc3c(c2)C(=O)N(C)C[C@@H](OC)[C@H](C)CN(C(=O)NC(C)C)[C@H](C)CO3)cc1 was tested. Which relative growth did it give?
**A.** inactive: 1.13

**Q.** With C[C@@H]1CN([C@H](C)CO)S(=O)(=O)c2ccc(-c3ccccc3F)cc2O[C@H]1CN(C)S(C)(=O)=O as the compound, how does the relative growth read?
**A.** inactive: 1

**Q.** How did the relative growth turn out when CN(C)C(=O)C[C@H]1CC[C@H](NC(=O)C2CC2)[C@@H](CO)O1 was run?
**A.** inactive: 0.983

**Q.** For O=C(O)c1cc(=O)c2ccccc2o1, which relative growth is on record?
**A.** inactive: 1.02

**Q.** With O=C(NC[C@@H](O)CO)c1c(I)c(C(=O)NC[C@@H](O)CO)c(I)c(N(CCO)C(=O)CO)c1I as the compound, how does the relative growth read?
**A.** inactive: 0.976

**Q.** For OC[C@H]1CC[C@@H]2O[C@H](CCc3ccc(C#CCc4ccccc4)cc3)[C@H](n3cc(-c4ccccc4)nn3)C[C@@H]2O1, which relative growth is on record?
**A.** inactive: 1.03

**Q.** C[C@H](CO)N1C[C@H](C)[C@@H](CN(C)C(=O)C2CCOCC2)Oc2ncc(C#Cc3cccc(F)c3)cc2C1=O was tested. Which relative growth did it give?
**A.** inactive: 1.01

**Q.** For COc1ccc(NC(=O)N(C)C[C@@H]2OCCCC[C@H](C)Oc3ccc(NS(=O)(=O)c4ccccc4)cc3C(=O)N([C@@H](C)CO)C[C@@H]2C)cc1, which relative growth is on record?
**A.** inactive: 1.05
